According to the BET-seq Pho4 binding data (Le et al. 2018):
The other results are listed elsewhere or left out. The energies were worked out here from pooled read counts, against the library average; single values are noisy.

Molecular target: T1, Pho4 (S. cerevisiae) (UniProt P07270)
T1 sequence: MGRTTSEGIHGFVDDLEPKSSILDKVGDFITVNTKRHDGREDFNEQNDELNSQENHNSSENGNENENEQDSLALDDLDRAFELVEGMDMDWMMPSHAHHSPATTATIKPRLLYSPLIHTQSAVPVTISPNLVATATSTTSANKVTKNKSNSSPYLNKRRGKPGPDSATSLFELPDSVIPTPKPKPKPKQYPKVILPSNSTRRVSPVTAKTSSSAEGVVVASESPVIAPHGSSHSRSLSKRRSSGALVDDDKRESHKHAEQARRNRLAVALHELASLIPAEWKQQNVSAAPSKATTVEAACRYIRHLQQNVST
Experiment: relative binding free energy (BET-seq); higher = weaker binding
Details: reference: library average

| Sequence | relative binding free energy |
| --- | --- |
| TAATACACGTGGTGCG | -0.03 kcal/mol |
| GGTATCACGTGCAATG | 0.23 kcal/mol |
| TGTGCCACGTGATTGG | 0.12 kcal/mol |
| CAAGGCACGTGCGGTG | -0.12 kcal/mol |
| AGTTTCACGTGAATAA | 0.36 kcal/mol |
| TGTTACACGTGAGGAG | 0.45 kcal/mol |
| ATGGTCACGTGGTCTG | 0.09 kcal/mol |
| GTAGGCACGTGGAAAG | 0.08 kcal/mol |
| AGGTTCACGTGAGCTT | 0.31 kcal/mol |
| AGGGTCACGTGATGTC | 0.14 kcal/mol |
| TTCAGCACGTGCAGGG | -0.07 kcal/mol |
| GATGTCACGTGAAGCG | 0.51 kcal/mol |
| ATTGACACGTGGTTTC | 0.08 kcal/mol |
| ATTGTCACGTGCGTCG | -0.12 kcal/mol |
| AAGTTCACGTGGAAGA | 0.27 kcal/mol |
| AGTAGCACGTGTAGTA | -0.19 kcal/mol |
| GTGAACACGTGATGAG | 0.22 kcal/mol |
| TTGTCCACGTGAGCGG | 0.19 kcal/mol |
| TGCAGCACGTGGAGAG | 0.01 kcal/mol |
| GCGTGCACGTGGAATG | 0.02 kcal/mol |
| GTGAGCACGTGTTAAG | 0.14 kcal/mol |
| AGAGTCACGTGGCGAG | 0.24 kcal/mol |
| TGTGTCACGTGGTTGT | 0.07 kcal/mol |
| GAGGGCACGTGTTACG | -0.06 kcal/mol |
| GTAGTCACGTGAGGGA | 0.31 kcal/mol |

| Sequence | relative binding free energy |
| --- | --- |
| TCGTGCACGTGGAATT | 0.12 kcal/mol |
| GGTTGCACGTGCCTGT | -0.09 kcal/mol |
| AAGTTCACGTGAAGTA | 0.41 kcal/mol |
| GGTTGCACGTGAGACG | 0.12 kcal/mol |
| TTAGCCACGTGGGTGC | -0.27 kcal/mol |
| AGCAGCACGTGTTGGG | 0 kcal/mol |
| GTGGGCACGTGTGTGG | 0.01 kcal/mol |
| AATTTCACGTGGCATT | 0.14 kcal/mol |
| ATGTACACGTGACTGG | 0.02 kcal/mol |
| TTTGGCACGTGGGAAG | -0.14 kcal/mol |
| GGTGCCACGTGTACGT | -0.02 kcal/mol |
| ATATACACGTGGTAGG | -0.07 kcal/mol |
| GGGGGCACGTGGTCTA | -0.19 kcal/mol |
| TGGTACACGTGGCATA | -0.13 kcal/mol |
| TGCAGCACGTGGGTCT | -0.16 kcal/mol |
| GAGGGCACGTGATGCT | -0.09 kcal/mol |
| AGTGACACGTGTGAAT | 0.17 kcal/mol |
| ACTAGCACGTGGCGTG | -0.13 kcal/mol |
| CGGGGCACGTGTCATT | 0.06 kcal/mol |
| GAGAGCACGTGTTTTA | -0.04 kcal/mol |
| CTGTGCACGTGGAGAT | 0.05 kcal/mol |
| GTGGGCACGTGGTATC | -0.08 kcal/mol |
| GCAGGCACGTGTTATT | 0.12 kcal/mol |
| GAATTCACGTGGTTGA | 0.15 kcal/mol |
| ATCGGCACGTGGGAAT | -0.12 kcal/mol |

| Sequence | relative binding free energy |
| --- | --- |
| GAGGGCACGTGGGGAT | -0.08 kcal/mol |
| GGAGACACGTGGGCTA | -0.01 kcal/mol |
| AGGGTCACGTGGCCGG | -0.01 kcal/mol |
| TGGTACACGTGTCGTT | 0 kcal/mol |
| TCGGGCACGTGGCGCT | -0.13 kcal/mol |
| GTTGGCACGTGTATTC | 0.02 kcal/mol |
| AGAGTCACGTGAGGTA | 0.16 kcal/mol |
| CGTCGCACGTGTATGT | -0.05 kcal/mol |
| TTGTTCACGTGGCATT | 0.15 kcal/mol |
| GAATTCACGTGGAGTG | 0.29 kcal/mol |
| TAGGGCACGTGAAAGG | 0.17 kcal/mol |
| GATGACACGTGGGTAA | -0.14 kcal/mol |
| TATGGCACGTGGAATG | 0.07 kcal/mol |
| ATGGTCACGTGACGAT | 0.18 kcal/mol |
| CGGGCCACGTGGGTGG | -0.2 kcal/mol |
| CGTGTCACGTGGGGTG | -0.07 kcal/mol |
| TTGAACACGTGTTAAT | 0.02 kcal/mol |
| AGGATCACGTGATTGG | 0.32 kcal/mol |
| GGTTTCACGTGGAGGT | 0.35 kcal/mol |
| GTGTTCACGTGCTTTA | 0.23 kcal/mol |
| GTTGTCACGTGCGGGT | 0.05 kcal/mol |
| AGGATCACGTGTGATT | 0.33 kcal/mol |
| CGAGGCACGTGTTCGG | -0.18 kcal/mol |
| TGCTACACGTGTAGTT | 0.07 kcal/mol |
| ATTAACACGTGGGGGC | -0.27 kcal/mol |

| Sequence | relative binding free energy |
| --- | --- |
| AGTTGCACGTGGACAT | 0.04 kcal/mol |
| CTTAGCACGTGTTGCT | -0.02 kcal/mol |
| TTGAGCACGTGATATG | 0.12 kcal/mol |
| TCGAGCACGTGAGTTA | 0.18 kcal/mol |
| AACTGCACGTGTTGGG | 0.03 kcal/mol |
| TTATTCACGTGAACGT | 0.28 kcal/mol |
| AAAGTCACGTGTTAGT | 0.08 kcal/mol |
| GTTTTCACGTGCATGG | 0.28 kcal/mol |
| AGTGGCACGTGCTGAT | -0.18 kcal/mol |
| GTTAGCACGTGGGTGC | -0.06 kcal/mol |
| TTATGCACGTGGGTAA | -0.04 kcal/mol |
| TATGTCACGTGTGGTA | 0.15 kcal/mol |
| GGAGCCACGTGGTGCG | -0.06 kcal/mol |
| GCGAGCACGTGAGGTG | 0.08 kcal/mol |
| CGATTCACGTGGGGGG | 0.09 kcal/mol |
| TATGGCACGTGTTACT | -0.09 kcal/mol |
| CGGCACACGTGGTGGT | -0.11 kcal/mol |
| TGCGTCACGTGTTGCA | 0.14 kcal/mol |
| GGCGTCACGTGCGGGT | 0 kcal/mol |
| AGTAACACGTGGAAGT | 0.11 kcal/mol |
| AGGTTCACGTGTAGAA | 0.29 kcal/mol |
| AGGCTCACGTGTAGTA | 0.2 kcal/mol |
| TGTTTCACGTGTAAAT | 0.35 kcal/mol |
| CAAGTCACGTGGTATG | 0.12 kcal/mol |
| CGAGTCACGTGTGGAA | 0.29 kcal/mol |

| Sequence | relative binding free energy |
| --- | --- |
| AGGGACACGTGGATTA | 0.08 kcal/mol |
| AGTTACACGTGTTTCT | 0.17 kcal/mol |
| TTGGTCACGTGAGTGA | 0.23 kcal/mol |
| CAGAGCACGTGTGGGA | -0.08 kcal/mol |
| GGACACACGTGCGTGT | 0.08 kcal/mol |
| ATAGACACGTGTTTAG | -0.05 kcal/mol |
| TGTTGCACGTGATGTG | 0.09 kcal/mol |
| GGCATCACGTGGTCTT | 0.15 kcal/mol |
| TTGTTCACGTGTTCCA | 0.24 kcal/mol |
| TCGTCCACGTGTAGGG | 0.11 kcal/mol |
| GCAGGCACGTGCGTGT | -0.18 kcal/mol |
| GTGTGCACGTGTAAAT | 0.09 kcal/mol |
| TTCGACACGTGTTGGT | 0.04 kcal/mol |
| AAGTTCACGTGGCGGG | 0.2 kcal/mol |
| TTTGCCACGTGTAGGT | -0.05 kcal/mol |
| ATTTACACGTGTATTA | -0.08 kcal/mol |
| TTTACCACGTGTAGTT | 0.19 kcal/mol |
| CGTGGCACGTGATGCT | -0.04 kcal/mol |
| TTATGCACGTGGCAAT | -0.17 kcal/mol |
| GTTTTCACGTGTCTAA | 0.29 kcal/mol |
| GGGTGCACGTGGGAAT | -0.07 kcal/mol |
| TATTTCACGTGTGATA | 0.39 kcal/mol |
| TTGTGCACGTGCTAGT | -0.09 kcal/mol |
| TTGCTCACGTGCGTGT | 0.11 kcal/mol |
| TGTGTCACGTGAATGG | 0.27 kcal/mol |

| Sequence | relative binding free energy |
| --- | --- |
| CTTGGCACGTGGCTTT | -0.25 kcal/mol |
| TTTTACACGTGGTTAC | 0.06 kcal/mol |
| CGGGTCACGTGTTGCA | 0.09 kcal/mol |
| GTTTGCACGTGAAAAT | 0.32 kcal/mol |
| GTTCGCACGTGAAGTA | 0.34 kcal/mol |
| ATAGTCACGTGTATTA | 0.08 kcal/mol |
| CTATTCACGTGTGGGT | 0.3 kcal/mol |
| GTAAGCACGTGGTCGT | -0.15 kcal/mol |
| GCCTTCACGTGTTTGG | 0.38 kcal/mol |
| TGTCACACGTGACGGG | 0.16 kcal/mol |
| TGGATCACGTGTGCAG | -0.01 kcal/mol |
| AGGGTCACGTGGACTT | 0.14 kcal/mol |
| AGGTCCACGTGCATGT | 0.1 kcal/mol |
| GTGTTCACGTGTGTGT | 0.26 kcal/mol |
| ATATTCACGTGTCTTT | 0.12 kcal/mol |
| GGTGTCACGTGGAATG | 0.22 kcal/mol |
| TTTGACACGTGTCGTT | 0.09 kcal/mol |
| TTTTGCACGTGTGGTC | 0.17 kcal/mol |
| ATGGCCACGTGACGTT | 0.14 kcal/mol |
| AGCTGCACGTGTTGGT | 0 kcal/mol |
| CGTGCCACGTGGAAGG | -0.06 kcal/mol |
